# Data published in publication PMC5515408.
# The list shows a part of the results. At the low end of the ranking the order means little.
# Tested on: MYC (p64) + MAX (p21), in MYC:MAX
# Experiment: protein-binding microarray (anti-MAX antibody)
# Settings: PBM: 15 mM Tris-HCl pH 7.5, 100 mM KCl, 0.075% NP40, 7.5 mM beta-mercaptoethanol, 375 ng/ul BSA, 8 ng/ul poly(dA-dT):(dA-dT), 550 ng complex, 60 min, room …; high values mean tight binding; double strand, one strand shown; sequences stand for … in CCGGC…TTAATAGCTAAGATTACTATATCGACG
row,Sequence,binding signal (log2 normalized fluorescence)
1,TGATAGGTGGGA,0.118
2,TGAAAATCGGTA,-0.137
3,TGATATTATGTA,-0.025
4,TGATTGTAGGTA,-0.0389
5,TGACACTAAGTA,0.05
6,TGACCAGAAGTA,0.0928
7,TGAGGGAAGGTA,-0.0621
8,TGAAGGAGAGTA,-0.0177
9,TGATCCTGCGTA,-0.0923
10,TGATCACGCGTA,0.482
11,TGAGCACACGTA,0.338
12,TGACACGTGCGC,0.633
13,TGAATGGCCGTA,0.135
14,TGACCTGGAGTA,0.0198
15,TGAATATTGGTA,-0.117
16,TGAGGTGGCGTA,-0.0184
17,TGAAGGATCGTA,-0.00561
18,TGATTCGACGTA,-0.0682
19,TGACTGAGAGTA,-0.185
20,TGAGCACCCGTA,0.0892
21,TGACTCTCTGTA,0.126
22,TTAGACGTGGTA,0.235
23,TGATTTAGCGTA,-0.0372
24,TCACACCTCGTA,0.481
25,TGAAGCGTAGTA,0.11

row,Sequence,binding signal (log2 normalized fluorescence)
1,TGAAACAGCGTA,0.0539
2,TGAGCTGCCGTA,0.0267
3,TGACCTCTGGTA,-0.0273
4,TGGCACGTGCTA,0.722
5,TGAATAAACGTA,0.257
6,TGACAACCGGTA,0.0343
7,TGACTGAAAGTA,-0.165
8,TGATGCTGCGTA,0.0264
9,TGACGTGCCGTA,0.15
10,TGATTTATAGTA,-0.149
11,TGATTTCGTGTA,0.133
12,TGATGAGCGGTA,0.0769
13,TGAATCTCAGTA,0.0284
14,TGAAGACAGGTA,0.261
15,TGAGACCTCGTA,0.245
16,TGACTCAGAGTA,-0.0401
17,TGCCATGTGGTT,0.633
18,CGCGACGTGGTA,0.471
19,TGACCGATCGTA,0.251
20,TGAAAAGGCGTA,0.0557
21,TGAGTTACGGTA,0.0922
22,TGGCATGTGGTA,0.502
23,TGGCACGTGGTA,0.809
24,TACGACGTGGTA,0.466
25,TGACCAATCGTA,0.0979

row,Sequence,binding signal (log2 normalized fluorescence)
1,TGAATCACGGTA,0.217
2,ATACACTTGGTA,0.425
3,TGATTATACGTA,-0.0532
4,TGACCATTGGTA,0.0788
5,TGACACGACTTA,0.373
6,TGACCTTCCGTA,0.159
7,TGACATCCCGTA,0.338
8,TGAGACCTGGTA,0.103
9,TGACACGTGCTC,0.813
10,TTACACGTGGAA,0.667
11,TGAGCGGTAGTA,-0.134
12,TGATCTGTAGTA,-0.135
13,TGATCGGGCGTA,-0.25
14,TTTCCCGTGGTA,0.301
15,TGAACGAAAGTA,0.0903
16,TGACGAGAGGTA,0.127
17,TGGAGCGTGGTA,0.418
18,TGATTACCAGTA,-0.0812
19,TGACGCACTGTA,0.457
20,TGATGACAGGTA,0.0197
21,TGAGCGGGGGTA,0.74
22,ATACACGTGGTA,0.842
23,TAAGTGACGTAG,-0.0243
24,TGAAAAGTCGTA,-0.168
25,TGACTGTTAGTA,0.0407

row,Sequence,binding signal (log2 normalized fluorescence)
1,TGACATAGCGTA,0.281
2,TGACACGACATA,0.459
3,TGAACATATGTA,0.423
4,TGAATAGTCGTA,-0.124
5,TGAGAAATCGTA,-0.121
6,TGATGTTTTGTA,0.192
7,GGAGCCGTGGTA,0.182
8,TGACACGCGATC,0.577
9,TGATAGATAGTA,-0.136
10,TGAGATCTCGTA,0.0155
11,CGACACGGCGTA,0.161
12,TGAGTGGCTGTA,0.275
13,TGACAAAACGTA,0.0336
14,TGAGTTGCAGTA,-0.0745
15,AGACACGAGGTA,0.93
16,TGATATCCAGTA,0.022
17,TGATATGGAGTA,-0.0756
18,TGAGGGGTTGTA,0.368
19,TGAAATCCTGTA,0.00511
20,TGATTATCTGTA,-0.165
21,TGATCCGTTGTA,0.0506
22,TGAACCACCGTA,0.213
23,TGATCACGTGTA,0.717
24,TGATACCTGGTA,-0.151
25,TGAATTCCGGTA,-0.11

row,Sequence,binding signal (log2 normalized fluorescence)
1,TGACCACTGGTA,0.166
2,TGATCCTCCGTA,0.0237
3,TGAGGACTGGTA,-0.0575
4,TGACATTATGTA,0.289
5,TGAGTTATCGTA,-0.213
6,TGATCCCACGTA,0.155
7,TGAACAAGTGTA,0.224
8,TGAACGATCGTA,0.151
9,TGAACGTTTGTA,0.39
10,TGATGCTTGGTA,0.0812
11,TGAAACGGTGTA,0.247
12,TGAGGTTTAGTA,-0.225
13,TGAGAGATGGTA,-0.0536
14,AGACAGGTGGGA,0.489
15,TGACATCAAGTA,0.259
16,TCAGAGACGTTG,0.0615
17,TGACTCGAGCTA,0.329
18,TGACTATTTGTA,0.0119
19,TGAGCTTCGGTA,-0.19
20,TGATACGGAGTA,-0.134
21,TGATTGGTGGTA,0.00492
22,TGAGATCTTGTA,-0.0799
23,TGAACTTTTGTA,-0.0438
24,TGATGGCATGTA,0.255
25,AGACGCATGGTA,0.7

row,Sequence,binding signal (log2 normalized fluorescence)
1,TGAAACTTGGTA,0.122
2,TGACACGTGAAC,0.796
3,TGAGTGTGTGTA,0.288
4,TGACCGAACGTA,0.0701
5,TGAAGAAAGGTA,-0.0249
6,TGAGCAATGGTA,0.0874
7,TGAAAAGAAGTA,-0.0867
8,TGATCTCTCGTA,-0.0577
9,TGACAGCACGTA,0.347
10,TGAGCATTCGTA,0.202
11,TGAGTGAGCGTA,0.1
12,TGTTCCGTGGTA,0.0711
13,TGACACTCTGTA,0.324
14,TGAGGCTGGGTA,-0.084
15,TGAACCGCCGTA,0.159
16,TGACTATCTGTA,-0.0337
17,TGACACGTTACA,0.638
18,TGACCCGTGATA,0.296
19,TGAGGCAACGTA,0.158
20,TGATTCAGAGTA,-0.205
21,TGAGGTACTGTA,0.0886
22,TGATAGGAGGTA,0.0395
23,TGATCATTGGTA,0.118
24,AGACGCGGGGTA,0.45
25,TGACTTCGAGTA,0.00134

row,Sequence,binding signal (log2 normalized fluorescence)
1,TGAGCGTCGGTA,0.0251
2,TGACCCAATGTA,0.162
3,ATCAGGGAATAG,0.206
4,TGAGTTATTGTA,-0.0326
5,TGAAATAGAGTA,-0.108
6,TGACCTTGGGTA,-0.061
7,TGACTCGACGTA,0.109
8,TGAGTATTAGTA,-0.245
9,TGACGTTCAGTA,0.00286
10,TGAATTGTCGTA,-0.103
11,TGAATTAACGTA,0.0806
12,TGACTGGTAGTA,0.0415
13,TGAGGAAGTGTA,0.0705
14,TGATCTATCGTA,-0.0691
15,TGACTGGACGTA,0.0994
16,TGAGCTGTGGTA,0.023
17,TGATACAAGGTA,0.262
18,TGTCGCGTCGTA,0.0696
19,TGAGTTACCGTA,0.0965
20,TGACAGCGCGTA,0.335
21,TGAGAAATGGTA,0.107
22,TGAAAGGTTGTA,0.148
23,TGAGTTAACGTA,0.199
24,CCGCCAAAGCAT,0.0505
25,TGATCACCCGTA,0.323
